# The whole screen tested about 150,000 compounds, of which about 540 (0.36%) showed an effect of 50% or more. This is one part of the list.
# Test system: Plasmodium falciparum
# Test: Primary screen in NF54 nanoGlo assay, in single point, at 2uM, 72h; a lower Z score goes with more inhibition
# Format: functional, Erythrocyte
# Conditions: timepoint 72 hour
Compound,% Inhibition [%],Z score
COc1cccc(CN2CCN(c3cccs3)CC2)n1,-3,0.59
Cc1ccc2c(c1)CCCN2C(=O)CCC(=O)c1ccccc1,-8,0.75
COCCOC1CCC(C(=O)N(C)c2ccnc(C)c2)CC1 (stereo not given),-11,2
CC(C)c1ncc(CN2CCOc3c(O)cc(-c4ccc(Cl)cn4)cc3C2)cn1,-5,0.94
CC1CC(NC(=O)NOCc2ccc(F)cc2)CN1C1CC1 (stereo not given),-4,0.62
CCOc1ccc(N2CC(C(=O)N(CC(F)(F)F)C(C)C3CC3)CC2=O)cc1 (stereo not given),-4,0.53
CN(CCOc1ccccc1)c1ncnc2[nH]ccc12,4,-0.55
Cc1cccnc1NCCNc1cc(C(C)C)nc(N)n1,-10,1.92
CCn1cc(CN2CCN(CCOC)[C@@H]3CS(=O)(=O)C[C@@H]32)cn1,4,-0.47
Cc1ncc2c(n1)CCCN(CC(=O)NCCC(C)C)C2=O,2,-0.24
CCCCN1CCN([C@@H](C(=O)NC2CCCCCC2)c2ccccc2)C(=O)C1=O,-5,0.83
N#CCCOC1(C#CC#CC2(OCCC#N)CCCCC2)CCCCC1,-3,0.46
Cn1cnc(C2=NN(CC3CC3)C(=O)C2)c1,-1,0.24
Cc1ccc(C)c(NC(=O)CN2CCCN(c3ccc(C(F)(F)F)cn3)CC2)c1,-9,1.72
C[C@H](O)CN(C1CCCCC1)S(=O)(=O)C1CC1,-8,0.77
CCc1ncc2c(n1)CN(C(=O)c1ccc(Cl)cc1OC)C2,-4,0.68
Cc1cc(O[C@H]2CCN(C)C2=O)ccc1NC(=O)c1ccoc1,-11,0.96
Cc1ccc(CCNS(=O)(=O)c2ccc3c(c2)C(C)(C)C(=O)N3C)cc1,-8,1.44
CCc1csc(CNC(=O)c2sc(OC)nc2C)n1,-2,0.36
Cc1cc(OC2CN(C(=O)c3cc(C)oc3C)C2)n2ncnc2n1,16,-2.05
Fc1ccc(F)c(-c2cncc(CN3CCOCC3)c2)c1,-12,1.46
CCn1nccc1[C@H](C)NC(=O)c1cc(-c2cccc(OC)c2)nc2c1c(C)nn2C,25,-2.79
Cn1nc(-c2ccc(-c3cn[nH]c3)cc2)nc1N1CCCCC1,-4,0.64
CC(=O)N1CC(C)(C)c2cc(S(=O)(=O)N[C@H]3CCCc4ccccc43)ccc21,-1,0.13
O=S(=O)(Nc1cccc2cccnc12)N1CCOCC1,-4,0.44
COc1ccc2c(c1)CN(C(=O)C1(C#N)CCCCC1)CC2,-9,0.85
CCn1cc(NS(=O)(=O)Cc2ccc(C)c(F)c2)c(C(N)=O)n1,-9,1.26
COCC1(NC(=O)CCC(=O)Nc2nncs2)CCCC1,-12,1.59

Compound,% Inhibition [%],Z score
O=C(NCc1nc2ncccn2n1)N[C@H]1CCO[C@@H]1c1ccnn1CC1CC1,6,-1.16
CC(C)NC(=O)c1ccnc(-c2ccccc2N(C)C)c1,-2,0.32
Cc1ncc(-c2c(-c3ccccc3)ncn2Cc2noc(C3CC3)n2)s1,-11,1.42
C=CCOc1cccc2c1cc(C(=O)N1CCN(Cc3ccccc3)CC1)n2Cc1ccccc1,-11,1.2
COc1ccc(CN(Cc2ccco2)C(=O)NC(C)C)cc1OS(C)(=O)=O,-5,0.58
Cn1cccc(C(=O)Nc2cnoc2)c1=O,-7,1.16
O=S(=O)(c1ccc(-c2cc(C(F)(F)F)n[nH]2)s1)N1CCc2ccccc2C1,-2,0.3
O=C1CC[C@@]2(CCCO2)CCN1Cc1ccc(C(F)(F)F)cc1,-3,0.47
O=C(N[C@@H]1COCC[C@@H]1OCc1cscn1)c1ccn2cnnc2c1,5,-0.59
O=C1CC[C@H](NC2(c3cccc(Cl)c3)CC2)CCN1,-3,0.54
OC[C@H]1CCc2nnc(C(F)F)n2C1,36,-1.05
CCCS(=O)(=O)c1c(S(=O)(=O)CCC)c2cc(-c3ccncc3)ccn2c1C(=O)c1ccc(C)cc1,-1,0.11
Cc1nc2c(F)cccc2c2c1COC2,-10,1.87
CCC(C)N1C(=O)[C@H]2C(C(=O)Nc3ccc(OC)cc3)[C@H]3C=C[C@@]2(O3)C1C(=O)NC1CCCCC1 (stereo not given in full),-6,0.91
CC(C)CCNC(=O)[C@H]1CCCN(S(=O)(=O)c2ccc3c(ccn3C)c2)C1,-15,2.73
CCOc1ccc(-c2cc(C(=O)NCCc3ccccc3)c3c(-c4ccccc4)[nH]nc3n2)cc1,-16,2.1
Cc1nn(CC(F)F)cc1-c1nc([C@H]2CCC(=O)NC2)no1,0,-0.04
c1nc(N2CCCC2)c2nc3n(c2n1)CCCCC3,-15,2.31
CC(O)C1CN(c2cc(NC3CC3)ncn2)CCO1 (stereo not given),-13,1.42
CC(C)CCC(=O)OCc1ccccc1N(C)C,-8,0.71
Cc1nc(COc2ccc(C(C)(C)C)cc2)nn1C,-12,2.25
O=C1NC2CCCCC2N(C(=O)Nc2ccccc2)C1CC(=O)N1CCN(c2ccccc2)CC1 (stereo not given),0,0
CCc1nc2n(n1)CCCC2NC1CCN(C(C)C)C1=O (stereo not given),0,0.01
Cn1nccc1C(=O)N1CCC(Cc2ccc(CCC(=O)NCC3CC3)cc2)CC1,-7,0.97
COC(=O)Nc1c(Br)cnc(N2CCCCCC2)c1Br,-10,1.17
Cc1ccc(-c2noc(Cn3c(=O)[nH]c4ccccc4c3=O)n2)cc1,-5,0.56
CCOC1CCCN(C(=O)C(C2CC2)N2CCCC2)C1 (stereo not given),3,-0.5

# From ChEMBL document CHEMBL4888484, “Replenishing the malaria drug discovery pipeline: Screening and hit evaluation of the MMV Hit Generation Library 1 (HGL1) against asexual blood stage Plasmodium falciparum ,using a nano luciferase reporter read-out” (2022)
